Results from patent US20190231847A1, “TREATMENT OF OCULAR DISEASE” (priority 2016, published 2019).

System: retinal inflammation
Assay: Mouse experimental autoimmune uveitis (EAU) model, clinical score from fundus images (TEFI)
Details: ALM201 0.3 mg/kg

IRQQPRDPPTETLELEVSPDPAS (listed as Homo Sapiens) [ALM201]
Retinal inflammation clinically and histologically: slightly reduced retinal inflammation
